# Reference: PubChem BioAssay AID445 (National Center for Advancing Translational Sciences (NCATS), 2006)
# The whole screen tested about 110,000 compounds, of which about 40 (0.04%) were called active. This list was built around the results that the source calls inconclusive (neither active nor inactive); the mix of calls is not that of the screen. The call rests on the fitted dose curve; in most records, active means well fitted curve in the direction sought with a large enough effect in the signal ratio (not every such curve was filed as active); inconclusive means small, poorly fitted or top-dose-only effect, or a change in a side signal; inactive means flat fitted curve, though single readings scatter; the % refers to the signal ratio. A potency beside an inconclusive call is a rough fit, not a confirmed value.
# Test: IkB Signaling;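 on IkBa stabilization activation: 0% = basal untreated cells and 100% = reference inhibitor full response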
# Settings: ABC-DLBCL IkBa-CBG/CBR dual luciferase ratio (green luciferase fused to IkBa over red control in OCI-Ly3 lymphoma cells), 4 h; IkBa stabilization activation: at 57.1 µM (top of the series), scaled: untreated 0%, proteasome inhibitor 100% unless noted
# Outline: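 Luminescence ratio of IκBα-fused green versus native red beetle luciferase in OCI-Ly3 cells, 4 h post-doxycycline with compound; red signal alone, scaled from basal (0%) to zero light (-100%), flagged nonspecific or cytotoxic effects.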
# Potency means the concentration at half of the fitted maximal effect.
Compound,IkBa stabilization activation,Potency
O=C(Nc1ccccc1C(F)(F)F)C1(S(=O)(=O)c2ccc(Cl)cc2)CC1,inconclusive: 1.62% [signal inhibitor],–
COc1ccc(OC)c(NC(=O)C2CCCN(S(=O)(=O)c3ccc4[nH]c(=O)ccc4c3)C2)c1 (stereo not given),inactive,–
COc1ccc(-c2cn3c(n2)sc2cc(C(=O)NCC(C)c4ccccc4)ccc23)cc1 (stereo not given),inconclusive: 2.62% [signal inhibitor],–
CCCCCCNC(=O)CCc1c(C)nc2nc(-c3cc(OC)cc(OC)c3)nn2c1C,inconclusive: 2.01% [signal inhibitor],–
Cc1ccc(C(=O)c2cn(Cc3cc(C)ccc3C)c3nc(C)ccc3c2=O)cc1,inconclusive: -1.15% [signal inhibitor],–
Cc1ccc(-c2noc(CN(C(=O)c3cccc(Br)c3)C(C)C)n2)cc1,inconclusive: 4.09% [signal inhibitor],–
COc1ccc2[nH]cc(C(=O)CN3CCN(C/C=C/c4ccccc4)CC3)c2c1,inconclusive: 1.08% [signal inhibitor],–
CCN(CC)CCNc1ccc(CO)c2sc3ccccc3c(=O)c12,inactive,–
CC1Cn2c(C(=O)NCCc3ccc(Cl)cc3)cc3cccc(c32)S1 (stereo not given),inconclusive: -1.79% [signal inhibitor],–
Cc1c(C(=O)N2CCCC2)oc2c1-c1nn(CC(=O)NCc3ccccc3Br)cc1CC2,inconclusive: -2.04% [signal inhibitor],–
COc1ccc(NC(=O)CCS(=O)(=O)c2nc(-c3ccc4c(c3)OCO4)cc(C(F)(F)F)n2)cc1,–,"inconclusive: 6.31 µM [signal inhibitor, single point]"
COc1ccc(C)cc1NC(=O)CCc1c(C)nn(-c2ccc(N3CCCCC3)nn2)c1C,inconclusive: -1.39% [signal inhibitor],–
Cc1csc(NC(=O)CCn2c(=O)sc3ccccc32)n1,inactive,–
CSc1ccc(C2CC(=O)Oc3c2c(=O)n(C)c2ccccc32)cc1 (stereo not given),inconclusive: 9.81% [signal inhibitor],–
CC1Cc2cc(-c3csc(NC(=O)Cc4cccs4)n3)ccc2N1S(C)(=O)=O (stereo not given),inconclusive: -5.97% [signal inhibitor],–
O=c1c(O)c(-c2ccc(O)c(O)c2)oc2ccccc12,"inactive: -1.48% [at 11.4 µM, scaled: untreated 0%, proteasome inhibitor 100%]",–
N#Cc1nc(-c2ccc(OCc3ccccc3)cc2)oc1NCCCn1ccnc1,inconclusive: 6.24% [signal inhibitor],–
COc1ccc(-c2cc(C(=O)Oc3ccc(C)cc3)c3cc(C)ccc3n2)cc1,inconclusive: 9.86% [signal inhibitor],–
Cc1c(NC(=O)C2CCCN2S(=O)(=O)c2ccc(Cl)cc2)c(=O)n(-c2ccccc2)n1C (stereo not given),inconclusive: 0.526% [signal inhibitor],–
Nc1ccc(O)c(-c2nc3ccccc3s2)c1,–,"inconclusive: 31.6 µM [signal inhibitor, partial curve]"

Compound,IkBa stabilization activation,Potency
O=c1c(CCc2ccccc2)nc2cnc(Oc3ccccc3)nc2n1C[C@H]1CCCO1,"inactive: 0.441% [at 11.4 µM, scaled: untreated 0%, proteasome inhibitor 100%]",–
Cc1ccccc1CNC(=O)Cc1ccc(NC(=O)N2CCCCc3ccccc32)cc1,inconclusive: 0.297% [signal inhibitor],–
CCOc1ccc(C(=O)c2cn(CC(=O)Nc3cccc(OC)c3)c3cc4c(cc3c2=O)OCCO4)cc1,inconclusive: 2.31% [signal inhibitor],–
CCOC(=O)c1cnc(C(C)(C)C)[nH]c1=O,inactive,–
COc1ccccc1CNC(=O)C(C)n1ccc2cc(S(=O)(=O)N3CCCC3)ccc21 (stereo not given),inconclusive: -0.475% [signal inhibitor],–
Cc1ccc(NC(=O)CSc2nc3c([nH]c4ccccc43)c(=O)n2-c2ccccc2)cc1Cl,inconclusive: -2.15% [signal inhibitor],–
Cc1ccc(C2Nc3cc(C)c(C)cc3-n3c(-c4ccccc4)c4c(=O)n(C)c(=O)n(C)c4c32)o1 (stereo not given),inconclusive: 2.28% [signal inhibitor],–
Cc1cccc(N2CCN(C(=O)C3CCN(C(=O)c4cc5sccc5n4C)CC3)CC2)c1C,inconclusive: 9.46% [signal inhibitor],–
COc1cc(/C=C(\C#N)c2nc3ccccc3[nH]2)ccc1OCc1ccc(F)cc1,inactive,–
COc1cc(-c2nc(SCC(=O)Nc3ccc(C)cc3)c(-c3ccc(F)cc3)[nH]2)cc(OC)c1OC,inconclusive: 3.52% [signal inhibitor],–
CCCN(CCC)CCCNC(=O)c1cnn(-c2ccc(F)cc2)c1-n1cccc1,inactive,–
COc1ccccc1N1CCN(C(=O)c2cnn(-c3cccc(Cl)c3)c2C2CCN(C(=O)OC(C)(C)C)CC2)CC1,inconclusive: 0.39% [signal inhibitor],–
CCc1ccccc1NC(=O)c1cc(S(=O)(=O)N2CCc3ccccc32)ccc1F,inconclusive: 4.86% [signal inhibitor],–
COc1ccccc1CNc1nc(-c2ccco2)nn1C(=O)c1cc(OC)c(OC)c(OC)c1,inconclusive: 1.03% [signal inhibitor],–
Cc1ccccc1CNC(=O)C1=Cc2ccccc2OC1,inconclusive: 3% [signal inhibitor],–
Cc1ccc(-c2nnc(Nc3ccc(OC(F)(F)Cl)cc3)c3ccccc23)cc1S(=O)(=O)NC(C)(C)CO,inconclusive: 10.5% [signal inhibitor],–
Cc1nc2scc(C)n2c(=O)c1S(=O)(=O)Nc1ccc(N2CCN(S(C)(=O)=O)CC2)cc1,inconclusive: 2.51% [signal inhibitor],–
Cc1sc2nc(SCC(=O)NCc3ccco3)n(-c3ccccc3)c(=O)c2c1C,inactive,–
O=C(Nc1cccnc1)c1ccccc1Oc1ccccc1,inactive,–
O=C1[C@@H]2[C@@H]3C=C[C@H]([C@@H]2C(=O)N1CN1CCSCC1)[C@@H]1[C@@H]2C(=O)N(CN4CCSCC4)C(=O)[C@@H]2[C@H]31,"inactive: -0.246% [at 11.4 µM, scaled: untreated 0%, proteasome inhibitor 100%]",–
